The values that follow come from article PMC12040169 (PLOS Biology, 2025).

This is one part of the list.

This assay has as its system T1, C. trachomatis L2/434/Bu expressing GFP (CTL2-GFP).
T1 construct: L2/434/Bu GFP intracellular growth in HeLa cells
On the set-up: species or system HeLa; C. trachomatis total inclusion area by high-content imaging, normalised to DMSO. The settings on record: total inclusion area; 28.5 h, 10 µM; inhibitor. The gist of the method:
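After bulk GFP and resorufin fluorescence reads, cells were fixed, stained with Hoechst and imaged by high-content microscopy. Inclusion area and number (GFP) stood in for chlamydial growth, nuclei count (Hoechst) for host cell viability. MICs were derived as for the bulk readout.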
Turning to `CN(CC(=O)Nc1sc2c(c1C#N)CCCCC2)Cc1cnn(C)c1` [CBK304621], the “% of control remaining” value was found to be 5.105.

As to `COC(=O)c1ccc(NC(=O)CC2Sc3ccc(C(F)(F)F)cc3NC2=O)cc1` (centres unmarked) [CBK264645], the “% of control remaining” value came out at 114.597.

With `Cc1c(C(=O)O)sc2c1c(=O)n(Cc1ccccc1)c(=O)n2CCN(C)C` [CBK286590], the “% of control remaining” value turned out to be 89.298.

In the case of `CC(=O)NC1=NC(=O)CN1C` [CBK020181], the “% of control remaining” value is 42.4262.

For the compound `O=C(c1ccc(-c2nccnc2N2CCN(CCO)CC2)cc1)N1CCOCC1` [CBK036812], the “% of control remaining” value was found to be 147.91.

Turning to `CCN1CCCCC1CNC(=O)c1cc(C2CC2)n[nH]1` (centres unmarked) [CBK282205], the “% of control remaining” value is on record as 103.246.

For `O=S(=O)(Cc1ccccc1)Nc1cccc2[nH]ccc12` [CBK159490], the “% of control remaining” value is 119.319.

Regarding `O=C(COc1ccccc1)NC1C(=O)N2C(C(=O)O)=C(Cl)CSC12` (centres unmarked) [CBK266903], the “% of control remaining” value was 107.126.

For `O=C(NCC1COc2ccccc2O1)NC(=O)C1CCNCC1` (centres unmarked) [CBK051096], the “% of control remaining” value was found to be 101.913.

For the compound `COc1ccc(NCc2cc(I)c(OCc3ccccc3)c(OC)c2)cc1` [CBK074452], the “% of control remaining” value is 61.3749.

For `C[C@H]1CNCCN1c1nccnc1Cl` [CBK047524F], the “% of control remaining” value is on record as 43.3065.

Turning to `Fc1ccc(OCc2nn3cnnc3s2)cc1` [CBK287288], the “% of control remaining” value is given as 88.712.

Consider `CCOc1ccc(S(=O)(=O)NCCCN2CCOCC2)c2ccccc12` [CBK018421], for which the “% of control remaining” value is on record as 74.4928.

As for `CN(C)S(=O)(=O)c1ccc(CCC(=O)O)cc1` [CBK287216], the “% of control remaining” value stood at 101.649.

As to `Cc1sc(-c2ccc(Cl)nc2)nc1OC(=O)c1cccs1` [CBK067733], the “% of control remaining” value is 83.9147.

As to `C=CCn1c(Cc2csc(NC(=O)c3ccc(C(C)=O)s3)n2)n[nH]c1=S` [CBK295299], the “% of control remaining” value is on record as 117.633.

In the case of `CCN(C(=O)CC1SC(NCC2CCCCC2)=NC1=O)c1ccccc1` (centres unmarked) [CBK067373], the “% of control remaining” value is 111.38.

With `COc1ccccc1C(=O)N1CCC(Cc2ccc(-c3cccc(C)c3)cc2)(C(N)=O)CC1` [CBK285792], the “% of control remaining” value turned out to be 89.2589.

As to `C[N+](C)(C)C1=C([O-])c2ccccc2C1=O` [CBK009824], the “% of control remaining” value is on record as 71.8752.

Take `N#Cc1ccccc1Cn1cc(C(=O)COc2ccccc2)c2ccccc21` [CBK268532]: the “% of control remaining” value amounted to 116.141.

For `Clc1nccnc1N1CCCC1` [CBK083594], the “% of control remaining” value stood at 95.4047.

For `Cc1ccc(S(=O)(=O)CCC(=O)Nc2ccc3sc(C)nc3c2)cc1` [CBK287706], the “% of control remaining” value stood at 85.0606.

Take `CC(C)(C)c1cc(C(C)(C)C)cc(S(=O)(=O)CCc2ccccn2)c1` [CBK261073]: the “% of control remaining” value turned out to be 91.6619.

`CCNc1cc(-c2cccc(N)c2)ncn1` [CBK037731]: the “% of control remaining” value is recorded as 57.553.

As for `O=C(c1ccc(-c2ccc(OCC3CCN(c4ncccn4)CC3)cn2)cc1)N1CCOCC1` [CBK173183], the “% of control remaining” value is listed as 92.0216.

For `Cc1cc(C)nc(N2CCC(CC(=O)N(C)CC(C)c3ccccc3)CC2)n1` (centres unmarked) [CBK286105], the “% of control remaining” value was determined as 84.4072.

Take `Cc1nn(C)c(N2CCN(C(=O)OC(C)(C)C)CC2)c1N` [CBK034182]: the “% of control remaining” value worked out at 6.785.

For `O=C(CCn1cnc2ccccc21)N1CC[C@@H](c2ccccc2)[C@H](O)C1` [CBK283712], the “% of control remaining” value amounted to 95.7795.

In the case of `NNC(=O)/C(=C\c1ccccc1)CCO` [CBK261215], the “% of control remaining” value is recorded as 88.8339.

With `Cc1ccccc1/N=C1/NC(=O)/C(=C/c2cccn2-c2ccc(S(N)(=O)=O)cc2)S1` [CBK265681], the “% of control remaining” value is listed as 92.436.

Regarding `Cn1cnc(S(=O)(=O)Nc2cccc3cc[nH]c23)c1` [CBK159554], the “% of control remaining” value came to 92.2434.

For the compound `Cc1ccc(-c2nn(-c3ccccc3)cc2C2CC(c3cccs3)=NN2C(=O)CCC(=O)O)cc1` (centres unmarked) [CBK296126], the “% of control remaining” value is listed as 119.254.

With `Cc1nn(CC(=O)NC(C)C)c(=O)c2cc3ccsc3n12` [CBK284027], the “% of control remaining” value is 80.3816.

Take `OCc1cccc(-c2nccnc2NCc2ccc(OC(F)(F)F)cc2)c1` [CBK037476]: the “% of control remaining” value is listed as 114.528.

Consider `OC(COCc1ccc2c(c1)OCO2)CN1CCN(C(c2ccccc2)c2ccccc2)CC1` (centres unmarked) [CBK074850C], for which the “% of control remaining” value is recorded as 74.0707.

As for `Cn1c(-c2c(CCC(=O)O)oc3cc(O)ccc3c2=O)nc2ccccc21` [CBK264831], the “% of control remaining” value is 109.434.

In the case of `C/C(C(=O)O)=C(/C)C(=O)N1CCC2(C1)NCCc1c2[nH]c2ccccc12` (centres unmarked) [CBK046995], the “% of control remaining” value is given as 95.861.

Consider `Cc1ccc([C@@]2(O)CC[C@@H]3CN(S(=O)(=O)C(C)C)C[C@@H]32)cc1` [CBK285297], for which the “% of control remaining” value was found to be 99.005.

With `O=C1N=C(NCC2CCCCC2)OC1Cc1ccccc1` (centres unmarked) [CBK067023], the “% of control remaining” value came out at 96.4078.

For the compound `O=C1c2cccc3cccc(c23)C(=O)N1CC1CCN(CC(O)COCc2ccccc2)CC1` (centres unmarked) [CBK074407C], the “% of control remaining” value turned out to be 33.1603.

Consider `Cn1c(=O)[nH]c(=O)c2c1nc(N1CCOCC1)n2CCCSc1nc2ccccc2s1` [CBK269368], for which the “% of control remaining” value worked out at 96.0663.

`CN(Cc1ccccc1)C(=O)c1c[nH]nc1C1CCCN(Cc2cccc(Cl)c2)C1` (centres unmarked) [CBK286490]: the “% of control remaining” value stood at 66.7739.

On to `CCN(C(=O)CCc1nc2ccccc2n1C)C1CCN(C)CC1` [CBK281994], for which the “% of control remaining” value amounted to 91.5022.

Regarding `CS(=O)(=O)Nc1cc2cccnc2c(-c2ccc3c(c2)CCO3)n1` [CBK085705], the “% of control remaining” value is 101.914.

In the case of `N#CCCn1cc(C(=O)Oc2ccc(-c3ccccc3)cc2)c(-c2cccc([N+](=O)[O-])c2)n1` [CBK267968], the “% of control remaining” value amounted to 82.5441.

For `CCc1nc(C)c(C(C)N(C)CC(=O)NCc2ccco2)s1` (centres unmarked) [CBK305203], the “% of control remaining” value was determined as 77.7794.

Take `c1csc(-c2cc3cccnc3n2CCN2CCOCC2)c1` [CBK282718]: the “% of control remaining” value turned out to be 119.29.

On to `Cc1cc(NC(=O)CN2CC(C)CC(C)C2)nc2c1c(=O)oc1ccccc12` (centres unmarked) [CBK287620], for which the “% of control remaining” value was found to be 101.99.

`O=C(Nc1nnc(-c2ccco2)o1)c1ccc(N2C(=O)CCC2=O)cc1` [CBK287423]: the “% of control remaining” value turned out to be 107.166.

For `O=c1[nH]c2ncc(-c3cncc4ccccc34)nc2n1C1CCC(O)CC1` (centres unmarked) [CBK065013], the “% of control remaining” value worked out at 111.886.

Turning to `COCC(=O)N1CCc2cc(-c3cn4ccccc4n3)ccc21` [CBK285274], the “% of control remaining” value turned out to be 104.398.

Regarding `O=C(NCc1nnc(-c2cccs2)o1)C1(c2cccc(F)c2)CC1` [CBK284639], the “% of control remaining” value is 109.471.

Regarding `Cc1ccc(S(=O)(=O)N(C)CC(=O)OCC(=O)c2ccccc2)cc1` [CBK264329], the “% of control remaining” value was 120.425.

With `O=C(CC1CC1)NC(c1ccccc1)c1ccccn1` (centres unmarked) [CBK144108], the “% of control remaining” value is given as 79.5891.

Take `Cc1cc(NC(=O)c2ccccc2O)n(C)n1` [CBK000190]: the “% of control remaining” value came to 54.193.

With `N/C(=N/O)c1ccc(-n2cncn2)nc1` [CBK020936], the “% of control remaining” value turned out to be 16.2139.

On to `CCn1c(COc2ccccc2Cl)nnc1SCC(=O)N1c2ccccc2Sc2ccccc21` [CBK265957], for which the “% of control remaining” value came out at 84.4211.

In the case of `Cc1noc(C)c1C(=O)NC1(c2ccc(F)cc2)CCCC1` [CBK284013], the “% of control remaining” value is recorded as 98.4339.

As for `COc1cccc(OC)c1OCCN1CCC(C(=O)NC(c2ccccc2)c2ccccn2)CC1` (centres unmarked) [CBK148419], the “% of control remaining” value worked out at 103.331.

Take `O=C(O)c1cnc(-c2ccccc2)nc1` [CBK261272]: the “% of control remaining” value was 82.9794.

With `CCN(Cc1ccc(C#N)cc1F)C(=O)Nc1cc(C)nn1C` [CBK305730], the “% of control remaining” value was determined as 77.1056.

Take `O=C(NCc1ccccc1)NC(=O)C1CCN(CCCOc2cccc3ccccc23)CC1` [CBK034856]: the “% of control remaining” value is on record as 64.3325.

With `Cn1cccc1C(=O)N1CCC(Cc2ccccc2)CC1` [CBK200182], the “% of control remaining” value is recorded as 53.3382.

Turning to `O=[N+]([O-])c1cccnc1Oc1cccc(Cl)c1Cl` [CBK002596], the “% of control remaining” value was 96.6116.

For `CCn1c2ccccc2c2cc(CN3CCN(Cc4cccc(F)c4)CC3)ccc21` [CBK263143], the “% of control remaining” value was found to be 98.2986.

On to `CC(C)[C@H](NC(=O)C1CC(=O)N(c2ccc(F)cc2)C1)C(=O)N1CCC(C(=O)O)CC1` (some centres unmarked) [CBK286669], for which the “% of control remaining” value turned out to be 75.8131.

For `O=C(CNC(=O)c1ccncc1)N/N=C/c1c(O)ccc2ccccc12` [CBK261378], the “% of control remaining” value turned out to be 32.874.

In the case of `CC(=O)Nc1c(Nc2ccccc2)c2ccccc2oc1=O` [CBK261756], the “% of control remaining” value came to 94.5029.

On to `Cc1c(CN(C)CC(=O)Nc2ccc(Br)cc2Cl)cnn1C` [CBK304214], for which the “% of control remaining” value is 8.495.

Regarding `COCCn1nnnc1C(c1cc2cc(C)ccc2[nH]c1=O)N1CCN(C(=O)c2ccco2)CC1` (centres unmarked) [CBK111562], the “% of control remaining” value was found to be 104.548.

As for `C=CCN1C(=O)CC2(C1=O)C(=O)N(CCn1cnc3c1c(=O)n(C)c(=O)n3C)c1ccc(Cl)cc12` (centres unmarked) [CBK075410], the “% of control remaining” value is 112.425.

With `CCC1CCCCN1C(=O)c1oc2ccccc2c1C` (centres unmarked) [CBK078548], the “% of control remaining” value is 112.303.

Regarding `COc1ccc(N2CCN(c3cc(-c4ccc(OC(F)(F)F)cc4)ncn3)CC2)cc1OC` [CBK091032], the “% of control remaining” value is listed as 109.194.

`Cc1ccccc1CN(CC(=O)NC1CC1)S(=O)(=O)c1ccc(Cl)cc1` [CBK265757]: the “% of control remaining” value is 149.208.

As to `COc1ccc(-c2nc(NC(=O)c3cccc(S(C)(=O)=O)c3)cnc2-c2ccc(F)cc2)cc1` [CBK037110], the “% of control remaining” value is 77.0926.

As for `Cc1cccc(=O)n1CCC(=O)N1CCCCC1CN1CCOCC1` (centres unmarked) [CBK306528], the “% of control remaining” value was 72.3589.

For `CC(=O)Nc1ccc(CN2CCCC(c3cc4ncccc4[nH]3)C2)cc1` (centres unmarked) [CBK283402], the “% of control remaining” value is recorded as 103.611.

Turning to `CCN(CC(=O)NC(C)C)Cc1nc(-c2cccc(C(F)(F)F)c2)no1` [CBK306039], the “% of control remaining” value came out at 94.1522.

For the compound `O=C(NC(=S)Nc1cccc2ncccc12)c1ccc(N2CCOCC2)c([N+](=O)[O-])c1` [CBK267608], the “% of control remaining” value is 95.1765.

Take `Nc1ncc(-c2cccc(OC(F)(F)F)c2)nc1-c1ccc(CCC(=O)O)cc1` [CBK064071]: the “% of control remaining” value was determined as 73.1203.
